± gives the standard deviation of the averaged measurements. The list shows a part of the results.
system: PfAP2-EXP AP2 domain (GST-tagged); test: gcPBM binding intensity (ln(normalized median fluorescence intensity)); higher = stronger DNA binding
In short: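 Each value is the highest Masliner-normalised natural-log median intensity across replicate spots of either orientation of a probe. The probes were primer-extended double-stranded 36-bp intergenic genomic sequences on an Agilent 4 × 180k array, alongside negative controls, exposed for 1 h to GST-tagged P. falciparum DNA-binding domains expressed in E. coli. Bound protein was picked up with Alexa488 anti-GST antibody and scanned at 488 nm.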

| Sequence | gcPBM binding intensity (ln) |
| --- | --- |
| ATAAAATAAAACAGAGCACACATTTTATTTACATTC [CACACA_site696] | 8.54 ± 0.59 |
| AAATTATATATATTTACATGCAATATAATGAAATAA [TGCATGCA_site229] | 8.84 ± 0.35 |
| ATATAAACATGTTTGTGTACGTAATATGAAAAATAA [XGTACX_site8157] | 9.04 ± 0.35 |
| GTATGTATAATATACACACTCACAAGCATTCAAATA [CACACA_site267] | 8.4 ± 0.45 |
| AAATATTATACAAAAAAAAAAAAAAAAAAAATATAT [CACACA_negctrl_site52] | 8.23 ± 0.3 |
| ATTTTGTATATATTTTGTACATATTTTGTATATATT [XGTACX_site885] | 8.68 ± 0.3 |
| TTGTTTTTAAGAAAAACACACACTCCTGTTATTTTA [CACACA_site9230] | 8.37 ± 0.45 |
| GACCCAATGAAAAGGTCACACATTTTTTCTTTTCGA [CACACA_site5074] | 8.16 ± 0.36 |
| AAAAATAAAAAGAATTGTACATATAAATCATATACA [XGTACX_site6860] | 8.26 ± 0.34 |
| TAAAAATATATAAACAGTACATAAATTAAATAAATA [XGTACX_site6962] | 8.62 ± 0.27 |
| AAAGTTTTTACCAAGTGTACATATATATATATATAT [XGTACX_site5786] | 10.1 ± 0.61 |
| GTTAAAATTTGTCAATGTACAGAAATAATAAAAAAA [XGTACX_site1879] | 8.66 ± 0.4 |
| TATTTTTTTTAGCGTACATGCAAAAAAAAAAAAAAA [TGCATGCA_site555] | 8.54 ± 0.29 |
| GTTTATTTATTTTATGTGCACATATAACAAAAAAAA | 9.02 ± 0.11 |
| TTTTTTCTTTAATACTCAATATGATAAAAGTAACAC [XGTACX_negctrl_site163] | 8.41 ± 0.38 |
| TCCAATTAAATATATGAACACACATGTGAACTTTCT [CACACA_site9318] | 8.47 ± 0.46 |
| ATGTAAATGTTATTATGTACATATTTATTCTTCAAA [XGTACX_site7377] | 8.58 ± 0.35 |
| TTAAGTCATAAATAAAGTACATAAATATAATATATA [XGTACX_site6304] | 8.46 ± 0.2 |
| GGGGGTAGGGGAAGAAGTACAATGATCACTACAGTA [XGTACX_site1169] | 9.85 ± 0.29 |
| TTTTTTATTAAAAGCGAAAAAAATGAAAACTTTTTT [GTGCAC_negctrl_site605] | 8.15 ± 0.46 |
| GAAGTAGATGGAAAAGTGCACTGTAATGGTTATATT | 9.13 ± 0.34 |
| TTTTTAATTAACTTTGTAAACTTATATATATATATA [TGCATGCA_negctrl_site311] | 10.1 ± 0.2 |
| TTAAAGCACCCATGCACACACACAAGGGAAAAGAAA [CACACA_site4289] | 9.35 ± 0.74 |

| Sequence | gcPBM binding intensity (ln) |
| --- | --- |
| AAGGAATATTAAGTGGGTACTAAAAAAAAATTAATT [XGTACX_site331] | 8.7 ± 0.38 |
| TGTATATAGAAACATACACACATATTAATTTTACAT [CACACA_site3126] | 8.32 ± 0.41 |
| CGTATGCGTATATACACACCCACGTATATATATAAA [CACACA_site3200] | 8.61 ± 0.4 |
| ATTTTTAATCATTTACAACCTAGTGATTATACAAAT [CACACA_negctrl_site1089] | 8.51 ± 0.35 |
| ATATAATAATTGTACACATGCACACACAAATATTAT [TGCATGCA_site204] | 8.9 ± 0.29 |
| TATATTTATGTATATGTGCACATAAATTTAAGAATG [GTGCAC_site9512] | 8.845 ± 0.078 |
| ATAGCCAAAAATCATGCACACCTAAAAAAAAAAAAA [CACACA_site8826] | 8.27 ± 0.41 |
| GTATATATATTTGTACGTACATATTGTTGTAAACAC [XGTACX_site8833] | 8.97 ± 0.23 |
| TTTTTTATTGTGATACGTATATTATTTTATGATTAA [GTGCAC_negctrl_site202] | 8.74 ± 0.4 |
| AAGAGAGACATCAACACACATACGTATGTATAGAAA [CACACA_site1397] | 8.56 ± 0.71 |
| TTCATTTTAATAATATGTACATAATATATTTAAAAA [XGTACX_site634] | 8.53 ± 0.25 |
| AAAAACTTAATATTCACACATATATATATATATATA [CACACA_site5240] | 10.2 ± 0.45 |
| TATTTCCATTCATAATTTTGTAGAATATATAACCGT [CACACA_negctrl_site1531] | 8.4 ± 0.47 |
| CGTATATATATATACACACACATATATATATGTAAA [CACACA_site195] | 8.75 ± 0.38 |
| AAAAAAAAAAATTACACACATACATATAATAATAAT [CACACA_site2193] | 8.48 ± 0.38 |
| ATATATATAAAATATACACACATACTGTTCATTTAA [CACACA_site6149] | 8.46 ± 0.22 |
| TTTACAAAAAATTATACACACACGTACATATAAATA [CACACA_site945] | 8.55 ± 0.23 |
| TTTTATTATTAATTTCTTTTTTCTCATCACTTTCAA [XGTACX_negctrl_site117] | 8.56 ± 0.61 |
| TAATTTATGAGTAATACACACACTTGTGGATATATT [CACACA_site3790] | 8.28 ± 0.45 |
| AAATATTATTTATTTACACACCAATCTTCTTTTCTT [CACACA_site3990] | 8.4 ± 0.3 |
| GAAAAATTTTTATATGTGCACATGTTATATATAATT [GTGCAC_site9742] | 9.07 ± 0.33 |
| TACGTTCTAATATATACACACCTGGTATTAATTATG [CACACA_site5260] | 8.69 ± 0.33 |
| AGGCACACAAACATATGTACACATATATATATATAT [XGTACX_site4723] | 9.98 ± 0.38 |

| Sequence | gcPBM binding intensity (ln) |
| --- | --- |
| TTTTGTTTTAATTTTATTTGATTTTATTTGATTTAT [CACACA_negctrl_site692] | 8.48 ± 0.52 |
| ATATTTATATGGTTTGCACACATAACAACTATGGTT [CACACA_site3631] | 8.72 ± 0.38 |
| ATATAACATATCAATTGTACGTATTGATAATATATA [XGTACX_site2504] | 8.44 ± 0.3 |
| TTTATTGAACGTACACATATATATATGTATATATTT [TGCATGCA_negctrl_site141] | 8.68 ± 0.15 |
| TTATTTTTTTTATATATATGTATAAATATATATATA [XGTACX_negctrl_site441] | 9.16 ± 0.28 |
| AAAAAAAAAAATCCAGTGCATATATTTTTTACATAT | 8.53 ± 0.042 |
| ATTACATTAATAAGAGTGCATTATATAAGTTTTATG | 8.43 ± 0.13 |
| GACAAAATGATAGGGACACACAATATCAATGTTTAA [CACACA_site765] | 8.38 ± 0.45 |
| TCAATCATCTTATATAGTACACATAAAAGTATTATA [XGTACX_site8513] | 8.41 ± 0.31 |
| CCACTAATAAATATTACACACATATAGATTTATATT [CACACA_site7465] | 8.41 ± 0.44 |
| CAAAAGGATATGCACACACACACACGGATATTTATA [CACACA_site7099] | 8.64 ± 0.45 |
| TTTTGTTATTAGAGGGTGCTTATAATGAACTCCTAC | 8.65 ± 0.19 |
| AAACATATATACATATGTACATATATACATATATGT [XGTACX_site5779] | 8.4 ± 0.26 |
| TATAAACCTTTTTGCACGCACACAAAAAAAAAATAA [CACACA_site168] | 8.61 ± 0.24 |
| GATTAACAACATATTAGTACATATATTATATATATA [XGTACX_site7646] | 8.98 ± 0.2 |
| GACTATAATGTTTTGGTGCGTCATGTTATGGTCATC | 8.62 ± 0.35 |
| TTCGGAAAAATTAAAGCACACAAAAAAAAATAAAAA [CACACA_site8296] | 8.62 ± 0.41 |
| CACCCCCACAGACACACACACACACCGATATATATA [CACACA_site8010] | 9.49 ± 0.49 |
| TATAATTTAACGACATGTACATATAAAAAAATATTT [XGTACX_site2395] | 8.89 ± 0.42 |
| CATATTTTATTATATACATGCAATTTTAATATATAT [TGCATGCA_site544] | 8.59 ± 0.25 |
| TTATTTATATTTTTTTGTACACATATTGTATACATA [XGTACX_site1178] | 8.78 ± 0.41 |
| TGTAGATTTTGTAACACACACATATAAATACCTATA [CACACA_site7183] | 8.6 ± 0.49 |
| ATACACATTCTTCCGACATAATAAGAAAAAGAAAAA [CACACA_negctrl_site9] | 8.46 ± 0.49 |

| Sequence | gcPBM binding intensity (ln) |
| --- | --- |
| AAAATGTATTCTCTCATGCACACTTTCTTTAAGGGA [CACACA_site2196] | 8.42 ± 0.28 |
| ATCTCTTATATATTCACACACATATATATAATTATA [CACACA_site1502] | 8.85 ± 0.42 |
| AAATATAATAACGAACGTACTTATTATAATTTGTAA [XGTACX_site2342] | 8.32 ± 0.25 |
| TATTTATATATATGATGTACATAAGGTGTAATGTTA [XGTACX_site5591] | 8.82 ± 0.46 |
| ATATATATTTAATGTTGTACATAAAAAATATATAAA [XGTACX_site7774] | 8.32 ± 0.29 |
| TACATGAATATTTATACATGCACACTAAAATAAAGA [TGCATGCA_site611] | 8.96 ± 0.21 |
| TATTTACATACAAAATGTACAAAAATATATTTTTTT [XGTACX_site888] | 8.42 ± 0.37 |
| TATTAACACAATAGCGCACACTTTTAATATTTTATA [CACACA_site1617] | 8.79 ± 0.33 |
| AAAGAATACAAAATTGCACACATATTGTGAAAATGT [CACACA_site9327] | 8.59 ± 0.38 |
| ATATAATGTTGTAATAGTACTTTTTTCATATAAATA [XGTACX_site2666] | 8.55 ± 0.38 |
| CTTAAATTGAAATGTTGTACAAAGTAAAAACAATGA [XGTACX_site2123] | 8.74 ± 0.43 |
| ATTTCTAAATGTTGGTGTACGTTTTTTTATAACCTT [XGTACX_site1752] | 8.98 ± 0.68 |
| ATTATTTAAAAAAAATGTACATAATAAATATGAACG [XGTACX_site4010] | 8.31 ± 0.23 |
| AATAAATGGAATGTCACACATATATATATATATATA [CACACA_site4869] | 10.2 ± 0.37 |
| AAAAAAAAGAAAGAAAGTACAAATTATAAAATGAAC [XGTACX_site860] | 8.87 ± 0.47 |
| TAAATTAAAAAACACACACACAAAAAAAAAAAAAAA [CACACA_site2263] | 8.29 ± 0.35 |
| AGTGTATGTATATAAACACACATACATATTTATAAC [CACACA_site6777] | 8.53 ± 0.28 |
| TACAAAAAAATAAATAATAAAAAAAAATATATATAA [XGTACX_negctrl_site344] | 8.38 ± 0.38 |
| TTGATATTATTGTATAAACATAATAGAGATAAAGAG [TGCATGCA_negctrl_site455] | 8.82 ± 0.33 |
| CAGGTGCACTATATTACACACGCTTCTTTTTTTTTA [CACACA_site2069] | 9.95 ± 0.98 |

Reference: the supplement of paper PMC11417369
